Laboratory results reported in ChEMBL document CHEMBL1201862, “PubChem BioAssay data set” (2004).
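Following 48 hours of exposure in 96-well plates, responses at five concentrations were used to interpolate endpoints linearly. Abbreviation: GI50, concentration required for 50% inhibition of growth.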 Activity calls are given as the source filed them. No stated cut-off is given here; in the data, active = GI50 up to about 1.1 µM and inactive = higher.

The molecules below were run on NCI-H322M (assay: growth of human tumour cells (NCI), 48 h).

Row | Compound | GI50
1 | Cc1occc1C(=S)Nc1ccc(Cl)c(C(=O)OC(C(C)C)C(C)C)c1 | inactive: 17.1 µM
2 | COc1c(-c2cccs2)oc2c(CC(=O)O)cccc2c1=O | inactive: > 100 µM
3 | COc1ccc(OC)c2c(=S)c3ccccc3[nH]c12 | inactive: 98.6 µM
4 | N#CC12COC3(CCCCC3C1(C#N)C#N)OC2=N (stereo unspecified) | inactive: 25.4 µM
5 | OCCN1CCN(CC/C=C2/c3ccccc3Sc3ccc(Cl)cc32)CC1 | inactive: 16.6 µM
6 | N#CSCc1nc2ccc(Cl)cc2c(-c2ccccc2)[n+]1[O-] | inactive: > 100 µM
7 | CCc1ccc(Cc2ccc(CC)c(NC(=O)C(=O)C3NC(=S)NC3=O)c2CC)c(CC)c1NC(=O)C(=O)C1NC(=S)NC1=O (stereo unspecified) | inactive: > 100 µM
8 | CCCCCCC(=O)OC[n+]1ccc2c(C)c3[nH]c4ccc(OC)cc4c3c(C)c2c1 | active: 0.193 µM
9 | N#Cc1ccc(C2NN=CC23C(=O)c2ccccc2OC3c2ccccc2)cc1 (stereo unspecified) | inactive: 73.8 µM
10 | S=C(N1CCN(c2cccc(Cl)c2)CC1)N1CCN(c2cccc(Cl)c2)CC1 | inactive: 54.7 µM
11 | O[C@@H]1CCC[C@@H]2NC[C@@H](c3ccc4c(c3)OCO4)[C@H]12 | inactive: > 100 µM
12 | S=C1c2ccc(Cl)cc2-n2cnnc2C2CSCN12 (stereo unspecified) | inactive: > 100 µM
13 | CC1CC(=O)N2CCCNC2=C1C#N (stereo unspecified) | inactive: > 100 µM
14 | N#Cc1c2ccc([N+](=O)[O-])cc2c(=O)n2c1sc1ccccc12 | inactive: 19.8 µM
15 | COc1ccc(-c2c(C(=O)Nc3ccccc3)c(-c3ccccc3)n(C3OC(CO)C(O)C(O)C3O)c(=S)c2C#N)cc1 (stereo unspecified) | inactive: > 100 µM
16 | CCC(=O)c1ccc2[nH]c3c(C)c4c(O)cc(C)nc4c(C)c3c2c1 | inactive: > 100 µM
17 | Oc1ccccc1/C=N/c1ccc(-c2nc3ccccc3s2)cc1 | inactive: 33.3 µM
18 | C=C1CCCCCCCCC/C=C/1SCCCSC | inactive: > 100 µM
19 | CC(C)OP(=O)(OC(C)C)/C(=N/Nc1ccc([N+](=O)[O-])cc1)NN | inactive: > 100 µM
20 | Cc1cc(NS(=O)(=O)c2ccc(NC(=O)c3cccc4c(N)c5ccccc5nc34)cc2)no1 | inactive: 20 µM
21 | CN(C)C(=O)CO/N=C1/C(=C2/C(=O)Nc3ccccc32)Nc2ccccc21 | inactive: > 100 µM
22 | O=C(Cn1cc(F)c(=O)[nH]c1=O)C12CC3CC(CC(C3)C1)C2 | inactive: > 100 µM
23 | COc1ccc2c3c1OC1C(OC)(OC)C=C[C@@]4(Br)[C@@H](C2)N(CC2CC2)CC[C@]314 (stereo partly specified) | inactive: 77.6 µM

Row | Compound | GI50
24 | CC(=O)c1c(C(F)(F)F)[n+]([O-])c2cc(Cl)c(Cl)cc2[n+]1[O-] | inactive: 1.51 µM
25 | COC(=O)C1CC23C=CCN4CC(C2C)C2(c5ccccc5NC12)C43 (stereo unspecified) | inactive: > 100 µM
26 | [O-][S+](Nc1ccccc1)c1ccc(Cl)cc1 (stereo unspecified) | inactive: 75.2 µM
27 | CCOC1=CP(=O)(OCC)CC(C)=C1Cl (stereo unspecified) | inactive: > 100 µM
28 | COc1cc(C(O)(CC#N)c2cc3c(cc2Br)OCO3)cc(OC)c1OC (stereo unspecified) | inactive: 49.8 µM
29 | COc1nc2ccc(COc3ccc(C(=O)NC(CCC(=O)O)C(=O)O)cc3)cc2nc1OC (stereo unspecified) | inactive: > 10 µM
30 | CC(=O)N1NC(c2ccccc2)=NC(=O)C1c1cc(C)c(O)c(C)c1 (stereo unspecified) | inactive: 27.7 µM
31 | N[C@H]1CCc2c1nc1c(c2-c2ccccc2)CC[C@@H]1N | inactive: > 100 µM
32 | CCc1ccc(/N=C\c2cc(OC)c(OC)c(OC)c2)cc1 | inactive: > 100 µM
33 | C#CCn1c(I)cc2c(c1=O)COC(=O)[C@]2(O)CC | inactive: > 100 µM
34 | O=C1OC(C2=CC(=O)c3ccccc3C2=O)C(Cl)=C1Cl (stereo unspecified) | inactive: > 100 µM
35 | O=C1/C(=c2\s/c(=C\c3ccccc3)c(=O)n2-c2ccccc2)SC(=S)N1c1ccccc1 | inactive: 25.5 µM
36 | NCCCOc1ccc([N+](=O)[O-])cc1Cl | inactive: > 100 µM
37 | NC(=O)C(c1ccccc1)N1OC2C(=O)N(c3cccc4ccccc34)C(=O)C2C1c1c2ccccc2c(Cl)c2ccccc12 (stereo unspecified) | inactive: 14 µM
38 | O=C1c2ccccc2CC12Cc1ccccc1C2 | inactive: > 100 µM
39 | CC(C)(C)N1NC1C1NN1C(C)(C)C (stereo unspecified) | inactive: > 100 µM
40 | CCCCCCCCCCCCCCCCCC(=O)OCC(CN(C)CCN(C)C)OC(=O)CCCCCCCCCCCCCCCCC (stereo unspecified) | inactive: > 100 µM
41 | COC1CC(OS(=O)(=O)c2ccc(C)cc2)C(OS(=O)(=O)c2ccc(C)cc2)C(COS(=O)(=O)c2ccc(C)cc2)O1 (stereo unspecified) | inactive: 15.5 µM
42 | O=C(Nc1c(O)[nH]c(=S)[nH]c1=O)c1ccco1 | inactive: > 100 µM
43 | CC(=O)N/C(=C\c1cccc([N+](=O)[O-])c1)c1nc2ccc3c(c2[nH]1)C(=O)c1ccccc1C3=O | inactive: 26.2 µM
44 | O=C1c2cc([N+](=O)[O-])ccc2-c2cccc(F)c21 | inactive: > 100 µM
45 | CC1=C(/C=C/C(C)=C/C=C/C(C)=C/C(=O)OCC2OC(n3cc(F)c(=O)[nH]c3=O)CC2OC(=O)/C=C(C)/C=C/C=C(C)/C=C/C2=C(C)CCCC2(C)C)C(C)(C)CCC1 (stereo unspecified) | active: 1.01 µM
46 | O=C1Oc2ccccc2C(=O)/C1=C/NC(=S)NCCc1ccccc1 | inactive: 36.8 µM
